{
  "source": "PubChem BioAssay AID504706",
  "about": "(National Center for Advancing Translational Sciences (NCATS), 2011)",
  "note": "Screen size: about 320,000 compounds; about 200 (0.062%) were called active. This list was built around the results that the source calls inconclusive (neither active nor inactive); the mix of calls is not that of the screen. Calls follow the shape of the dose curve; as a rule, active = well fitted activation curve with a large enough effect; inconclusive = small, poorly fitted or top-dose-only effect; inactive = no such curve, though single readings can be large or run the other way. Potencies of inconclusive entries are left out as doubtful fits. Potency is read from the fitted curve at half-maximal effect; tags tell the direction and shape of the fitted curve.",
  "data": [
    {"test": "qHTS assay for re-activators of p53 using a Luc reporter; also: nearly all actives have a fitted effect of over 45% in size; as to activity change, positive = activation: % of control where 0% means no effect", "conditions": "H1299 p53-A138V BP100-luciferase reporter, luminescence, 24 h; series mostly up to 92.2 µM; activity change, positive = activation: at the top concentration", "summary_of_the_method": "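H1299 (p53-null), stable ts p53-A138V + BP100-Luc; 1000 cells/well, Opti-MEM/10% FBS; cpd 4 pt, 1:5; 24 h, 37 deg C, 5% CO2; detection reagent 10 min RT; luminescence.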", "values": [
      {"compound": "Cc1cccc(NC(=S)NNC(=O)c2csc(C(C)C)c2)c1", "Potency": "inconclusive [activator, partial curve, poor fit]"},
      {"compound": "O=C(CSc1ccccc1C(=O)O)NC1CCCCCC1", "activity change, positive = activation": "inactive: 2.55%"},
      {"compound": "CCCc1ccc2oc(C(=O)N(C)Cc3ccn[nH]3)c(C)c2c1", "Potency": "inconclusive [activator, partial curve, poor fit]"},
      {"compound": "c1ccc(CSc2nc3ncccn3n2)cc1", "Potency": "inconclusive [activator, partial curve, poor fit]"},
      {"compound": "CCn1c2c(c(=N)c3c1CCC3)CCCC2", "activity change, positive = activation": "inactive: 1.38%"},
      {"compound": "CC(C)n1ncc2c(C(=O)Nc3cccc(C#N)c3)cc(C3CC3)nc21", "activity change, positive = activation": "inactive: -13.8%"},
      {"compound": "CCCC1C2CN(C(C)C)CC=C2C(C#N)=C(N)C1(C#N)C#N", "note": "(stereo not given)", "activity change, positive = activation": "inactive: -3.61%"},
      {"compound": "Oc1c(C=C2N=c3ccccc3=N2)sc(=S)n1C1CCCC1", "Potency": "inconclusive [activator, full curve, poor fit]"},
      {"compound": "Cc1cccc(C(=O)NNC(=O)c2ccc(Cl)cc2)c1O", "Potency": "inconclusive [activator, full curve, poor fit]"},
      {"compound": "Cc1nn(-c2ccccc2)c(Cl)c1/C=N/NC(=O)CCNc1n[nH]c(=O)[nH]c1=O", "activity change, positive = activation": "inactive: -0.873%"},
      {"compound": "COc1ccc(C)cc1N(C(=O)COc1cccc(F)c1)c1nc2ccccc2s1", "Potency": "inconclusive [activator, partial curve, poor fit]"},
      {"compound": "C[C@@H]1CN([C@@H](C)CO)C(=O)c2cc(NC(=O)C3CC3)ccc2O[C@@H]1CN(C)C(=O)NC1CCCCC1", "activity change, positive = activation": "inactive: -3.27%"},
      {"compound": "Clc1cccc(CSc2nc3ccncc3[nH]2)c1", "Potency": "inconclusive [activator, single point]"},
      {"compound": "COc1ccccc1OCc1cc(C(=O)N2CC3C[C@@H]4CC2C[C@H](C3)C4)no1", "Potency": "inconclusive [activator, partial curve, poor fit]"},
      {"compound": "CC(=O)Nc1ccc(S(=O)(=O)NCc2ccc3c(c2)cc(C)n3C)cc1", "activity change, positive = activation": "inactive: -2.24%"},
      {"compound": "CCc1ccccc1NC(=O)/C(C#N)=C\\c1ccc(Sc2ccccc2)o1", "activity change, positive = activation": "inactive: 4.12%"},
      {"compound": "O=C(NNS(=O)(=O)c1ccc(F)cc1)c1cccc(O)c1", "Potency": "inconclusive [activator, single point]"},
      {"compound": "O=c1c2ccccc2c(/C=N/c2n[nH]c(CCCO)n2)c(O)n1-c1ccccc1Cl", "activity change, positive = activation": "inactive: -4.13%"},
      {"compound": "CC(C)CNC(=O)NC1C(NC(=O)NCC(C)C)N(C)C(=O)N1C", "note": "(stereo not given)", "activity change, positive = activation": "inactive: -0.663%"},
      {"compound": "COc1cc(C(=O)NCc2nnc(SCC(=O)Nc3nc4ccc(C)cc4s3)o2)cc(OC)c1OC", "Potency": "inconclusive [activator, single point]"}
    ]}
  ]
}
